The values that follow come from publication PMC4336329 (PLoS ONE, 2015).

Screen size: about 310,000 compounds; about 14,000 (4.5%) showed an effect of 50% or more. The effect is printed as a negative number. Some of the results follow.
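Also: peak tail current of the secondary pulse compared with the same well before compound.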

human ether-à-go-go-related gene (hERG) potassium channel, sequence (Q12809 whole entry, looked up): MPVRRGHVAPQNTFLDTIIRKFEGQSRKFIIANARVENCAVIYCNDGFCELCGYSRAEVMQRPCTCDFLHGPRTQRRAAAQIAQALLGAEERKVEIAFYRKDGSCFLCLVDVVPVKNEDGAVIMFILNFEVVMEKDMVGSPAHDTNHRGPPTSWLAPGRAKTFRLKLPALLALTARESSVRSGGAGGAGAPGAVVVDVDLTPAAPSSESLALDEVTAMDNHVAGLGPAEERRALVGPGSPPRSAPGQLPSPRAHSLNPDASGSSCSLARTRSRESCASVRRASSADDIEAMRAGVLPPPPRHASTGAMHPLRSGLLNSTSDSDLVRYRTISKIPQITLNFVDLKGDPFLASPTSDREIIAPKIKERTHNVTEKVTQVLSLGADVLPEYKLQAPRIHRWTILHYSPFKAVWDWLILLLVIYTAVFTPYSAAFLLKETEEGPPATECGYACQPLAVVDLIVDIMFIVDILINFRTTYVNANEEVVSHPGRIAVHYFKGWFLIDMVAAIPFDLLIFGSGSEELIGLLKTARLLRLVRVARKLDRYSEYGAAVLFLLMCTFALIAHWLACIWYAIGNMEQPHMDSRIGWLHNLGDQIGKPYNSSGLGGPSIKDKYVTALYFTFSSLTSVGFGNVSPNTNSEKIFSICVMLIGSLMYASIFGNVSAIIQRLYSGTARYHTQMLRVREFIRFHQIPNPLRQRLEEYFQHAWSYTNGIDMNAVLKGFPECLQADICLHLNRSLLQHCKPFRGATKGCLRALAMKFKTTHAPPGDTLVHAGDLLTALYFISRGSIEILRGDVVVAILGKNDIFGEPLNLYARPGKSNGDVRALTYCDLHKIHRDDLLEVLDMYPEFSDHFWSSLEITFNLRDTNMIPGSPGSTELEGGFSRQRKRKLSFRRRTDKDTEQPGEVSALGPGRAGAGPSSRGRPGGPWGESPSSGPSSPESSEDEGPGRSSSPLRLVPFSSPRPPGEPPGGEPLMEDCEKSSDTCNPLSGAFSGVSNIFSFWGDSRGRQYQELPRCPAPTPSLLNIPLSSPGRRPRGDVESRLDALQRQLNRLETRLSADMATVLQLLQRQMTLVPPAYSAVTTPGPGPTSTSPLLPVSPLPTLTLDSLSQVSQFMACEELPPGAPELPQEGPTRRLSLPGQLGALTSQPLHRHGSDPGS

The assay concerns the target human ether-à-go-go-related gene (hERG) potassium channel (human, UniProt Q12809). In words: primary screen, population patch clamp on CHO cells stably expressing hERG.
As for `CC(C)(C)C1CCC(=O)N(CCC#N)CC1` (centres unmarked), the “hERG current change (%, negative = inhibition) at 10uM” value was -2.41%.

As for `Cc1cc(C(=O)N2CCN(S(=O)(=O)c3ccccc3F)CC2)c(C)o1`, the “hERG current change (%, negative = inhibition) at 10uM” value is given as 15.6%.

With `C=CCOC(=O)C1=C[C@@H](c2coc3ccccc3c2=O)[C@H](CCCO)[C@@H](OCC)O1`, the “hERG current change (%, negative = inhibition) at 10uM” value was -27.5%.

In the case of `O=[N+]([O-])c1ccc(O)c(/C=N/n2cnc3ccccc32)c1`, the “hERG current change (%, negative = inhibition) at 10uM” value worked out at 19.2%.

Regarding `Nc1ccc2nc(SCC(=O)Nc3ccc(N4CCOCC4)c(Cl)c3)sc2c1`, the “hERG current change (%, negative = inhibition) at 10uM” value worked out at 7.12%.

Take `C=CCn1c(SCC(O)Cn2c3ccccc3c3ccccc32)nnc1-c1ccco1` (centres unmarked): the “hERG current change (%, negative = inhibition) at 10uM” value was determined as 2.05%.

Turning to `CCOc1ccc(S(=O)(=O)N2CCN(C(=O)c3cccnc3)CC2)cc1`, the “hERG current change (%, negative = inhibition) at 10uM” value was -29.3%.

Turning to `O=C(CSc1nc2ccccc2c(=O)n1Cc1ccc(Cl)cc1)NCc1cccs1`, the “hERG current change (%, negative = inhibition) at 10uM” value is reported as -52.5%.

As for `CCOc1ccc(CCNC(=O)CCc2nc(-c3ccc(C)cc3)no2)cc1OCC`, the “hERG current change (%, negative = inhibition) at 10uM” value is given as -1.95%.

As for `CCc1ccc(C2=NN(CCC(=O)NC3CCCCCC3)C(=O)CC2)cc1`, the “hERG current change (%, negative = inhibition) at 10uM” value is -33.4%.

On to `CCCn1c(COc2ccccc2OC)nc2ccccc21`, for which the “hERG current change (%, negative = inhibition) at 10uM” value was -10.3%.

As for `CCN(CC)S(=O)(=O)c1ccc2[nH]c(=O)cc(C(=O)NCC3CCCO3)c2c1` (centres unmarked), the “hERG current change (%, negative = inhibition) at 10uM” value is on record as -10.3%.

Turning to `Cc1cc(C(=O)OCC(=O)c2cccs2)c2ccccc2n1`, the “hERG current change (%, negative = inhibition) at 10uM” value is 24.1%.

As for `Cn1cccc1CC(=O)NNC(=O)Nc1ccc(F)cc1`, the “hERG current change (%, negative = inhibition) at 10uM” value is given as -0.548%.

Regarding `Cc1nn(C)c(C)c1NC(=S)Nc1ccc(S(=O)(=O)Nc2ncccn2)cc1`, the “hERG current change (%, negative = inhibition) at 10uM” value was -3.6%.

For `CCOC(=O)c1oc2ccc3c(c2c1C)C(=O)CC1(CCN(C(=O)OCC)CC1)O3`, the “hERG current change (%, negative = inhibition) at 10uM” value is -1.98%.

Consider `Cc1ccc(NC(=O)Cn2nnc3ccccc3c2=O)cc1`, for which the “hERG current change (%, negative = inhibition) at 10uM” value is recorded as 9.98%.

On to `Cc1cc(NS(=O)(=O)N(C)C)ccc1C(C)C`, for which the “hERG current change (%, negative = inhibition) at 10uM” value stood at 10.5%.

Turning to `COc1cc(CN2CCc3ccc(NC(=O)CCc4ccccc4OC)cc3C2)ccc1O`, the “hERG current change (%, negative = inhibition) at 10uM” value is on record as -37.3%.

Regarding `NC1=NC(c2ccc(F)cc2)n2c(nc3ccccc32)N1` (centres unmarked), the “hERG current change (%, negative = inhibition) at 10uM” value worked out at 7.14%.

Consider `COc1ccc(CN2CCNC(=O)C2CC(=O)NCCc2c[nH]c3ccccc23)c(OC)c1` (centres unmarked), for which the “hERG current change (%, negative = inhibition) at 10uM” value is reported as 38.5%.

Turning to `COCC(C)NC(=O)c1cc(OC)cc(OC)c1` (centres unmarked), the “hERG current change (%, negative = inhibition) at 10uM” value was 7.71%.

Consider `Cc1ccc(NC(=O)CSc2nnc(CSc3nc(C)cc(C)n3)n2Cc2ccco2)c(C)c1`, for which the “hERG current change (%, negative = inhibition) at 10uM” value is recorded as -39.5%.

For the molecule `CC(C)CN1C(=O)C(=O)N(CC(=O)N2CCN(c3ccccc3)CC2)C1=O`, the “hERG current change (%, negative = inhibition) at 10uM” value is reported as -11.8%.

`Cc1cc(C(=O)Nc2cc(C)n(Cc3ccc(Cl)cc3)n2)no1`: the “hERG current change (%, negative = inhibition) at 10uM” value is -40.2%.

Regarding `Cc1ccccc1-n1c(SCC(=O)N2CCC(C(=O)O)CC2)nnc1-c1ccncc1`, the “hERG current change (%, negative = inhibition) at 10uM” value came out at 32.7%.

`COCCNC(=O)Cn1cc2c(n1)CCCCC2`: the “hERG current change (%, negative = inhibition) at 10uM” value is reported as 6.91%.

For `CCOC(=O)c1c(N)c2cc([N+](=O)[O-])cnc2n1C`, the “hERG current change (%, negative = inhibition) at 10uM” value amounted to 17.3%.

Turning to `CC(=O)N1c2ccc(S(=O)(=O)NCC3CCC(C(=O)NCc4ccc(C)cc4)CC3)cc2CC1C` (centres unmarked), the “hERG current change (%, negative = inhibition) at 10uM” value is reported as -0.179%.

On to `Cc1cc(C)cc(Oc2nc3ccccn3c(=O)c2/C=C(\C#N)C(=O)NC2CCS(=O)(=O)C2)c1` (centres unmarked), for which the “hERG current change (%, negative = inhibition) at 10uM” value is listed as -4.95%.

Consider `O=C(NCc1ccc2c(c1)OCO2)c1ccc(CS(=O)Cc2cccc(Cl)c2)o1` (centres unmarked), for which the “hERG current change (%, negative = inhibition) at 10uM” value is on record as -23.6%.

Take `CC1C/C(=N\NC(=O)CCc2ccc(S(=O)(=O)N3CCOCC3)cc2)CC(C)(C)C1` (centres unmarked): the “hERG current change (%, negative = inhibition) at 10uM” value came to 8.88%.

For `O=C(CCNS(=O)(=O)c1ccc(Br)cc1)NCc1ccco1`, the “hERG current change (%, negative = inhibition) at 10uM” value was -22.8%.

Take `COc1ccc(-c2nc(CS(=O)CC(=O)NC(C)CCc3ccccc3)c(C)o2)cc1OC` (centres unmarked): the “hERG current change (%, negative = inhibition) at 10uM” value is listed as -16.8%.

`Cn1cnc2cc(NCc3ccc(Cl)cc3)ccc21`: the “hERG current change (%, negative = inhibition) at 10uM” value is -18.3%.

As for `CCOC(=O)c1[nH]c(=O)[nH]c1CN(Cc1ccco1)Cc1[nH]c(=O)[nH]c1C(=O)OCC`, the “hERG current change (%, negative = inhibition) at 10uM” value was determined as 8.37%.

As to `O=C(c1ccccc1Cl)N1CCSCC1`, the “hERG current change (%, negative = inhibition) at 10uM” value is listed as 13.9%.

With `CCOC(=O)N1CCN(c2ccc3nnnn3n2)CC1`, the “hERG current change (%, negative = inhibition) at 10uM” value is reported as -18.1%.

Turning to `O=C(Nc1cccc(-c2ccc(N3CCOCC3)nn2)c1)c1ccccc1`, the “hERG current change (%, negative = inhibition) at 10uM” value is -30.8%.

Take `Cn1nccc1C(=O)Nc1cccc(S(=O)(=O)N2CCOCC2)c1`: the “hERG current change (%, negative = inhibition) at 10uM” value was found to be 6.58%.

Consider `O=C(c1cc2c(s1)-c1ccccc1S(=O)(=O)C2)N1CCCC1`, for which the “hERG current change (%, negative = inhibition) at 10uM” value is -18.1%.

Regarding `Cc1cccc(N2CCc3c2nc2ccccc2c3N)c1.O=C(O)C(=O)O`, the “hERG current change (%, negative = inhibition) at 10uM” value is given as -53.7%.

Regarding `COc1cc(OC)c2ccc(=O)oc2c1C(CCN1CCCC1)c1ccc(N(C)C)cc1` (centres unmarked), the “hERG current change (%, negative = inhibition) at 10uM” value was -24.1%.

In the case of `COc1ccccc1CNC(=O)c1cc2c(=O)[nH]c3ccccc3c2n1C`, the “hERG current change (%, negative = inhibition) at 10uM” value turned out to be 12.3%.

Regarding `CC(C)c1ccccc1NC(=O)COC(=O)c1cc(=O)[nH]c(=O)[nH]1`, the “hERG current change (%, negative = inhibition) at 10uM” value came out at 13.2%.

On to `COC(=O)C1=C(C)Nc2[nH]c(=S)[nH]c(=O)c2C1c1ccc(OC)cc1` (centres unmarked), for which the “hERG current change (%, negative = inhibition) at 10uM” value is on record as 26.8%.

Regarding `COc1cc(OC)cc(C(=O)N2CCN(c3ccccn3)CC2)c1`, the “hERG current change (%, negative = inhibition) at 10uM” value is given as -1.01%.

As to `C=CCNc1nc(NCc2ccccc2)c(C#N)c2c1CN(C)CC2`, the “hERG current change (%, negative = inhibition) at 10uM” value is -68.1%.

Consider `O=C(CN1CCc2[nH]c3ccccc3c2C1)N1CCCCC1`, for which the “hERG current change (%, negative = inhibition) at 10uM” value was found to be 0.176%.

Consider `CC(=NC(C)c1ccccc1)c1c(O)[nH]c(=O)[nH]c1=O` (centres unmarked), for which the “hERG current change (%, negative = inhibition) at 10uM” value stood at 5.61%.

With `COc1ccc(C2CC(C)(c3ccc(OC)cc3OC)Nc3ccccc3N2)c(OC)c1` (centres unmarked), the “hERG current change (%, negative = inhibition) at 10uM” value is listed as -10.4%.

In the case of `O=C(O)c1nn(-c2cccc(Cl)c2)c(=O)cc1O`, the “hERG current change (%, negative = inhibition) at 10uM” value is given as 4.44%.

In the case of `COc1cc(NC(=O)c2cc3ccccc3o2)c(OC)cc1Cl`, the “hERG current change (%, negative = inhibition) at 10uM” value is recorded as 16.3%.

Turning to `CC(CCc1ccc(O)cc1)NCc1ccc(Br)cc1` (centres unmarked), the “hERG current change (%, negative = inhibition) at 10uM” value is reported as -76.2%.

As to `COc1ccc(CC(=O)NNC(=O)c2cccs2)cc1OC`, the “hERG current change (%, negative = inhibition) at 10uM” value is 2.59%.

For the molecule `CC(C)c1ccc(NC(=O)CSc2n[nH]c(=O)n2C2CC2)cc1`, the “hERG current change (%, negative = inhibition) at 10uM” value is -4.38%.
